# Results as given in the supplement of paper PMC10037445.
# Values joined by “and” are separate entries in the source; they are usually repeats but may differ in a detail not shown here. Identical values can stand only once. In all, about 2,900 compounds were measured (“NF-kB SEAP reporter activity, fold change vs agonist alone”: median about 0.99, highest 2% from about 2.6 on). The list shows a part of the results.
# Assays:
# RAW-Dual [1] = assay: NF-kB SEAP reporter activity, fold change vs agonist alone; higher = enhanced NF-kB activity; conditions: library stock concentration (final ~1000-fold dilution): 10 mM
# Summary of the method: (§1)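 Cytotoxic wells were those whose IncuCyte confluency was below 70% of agonist controls in both mask sets. The cells were RAW-Dual macrophages at 50,000 cells/well in DMEM on 384-well plates, dosed with 50 nL of library stock by pin tool, stimulated with a PRR agonist 1 h later, and kept at 37 °C, 5% CO2 for 20 hours. IRF and NF-κB reporter activity, as fold change over agonist-alone wells, came from supernatant read by QuantiLuc luminescence and QuantiBlue absorbance, respectively.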
# RAW-Dual [2] = assay: NF-kB SEAP reporter activity, fold change vs agonist alone; cytotoxicity flag (confluency mask): not cytotoxic; higher = enhanced NF-kB activity
# Summary of the method: as §1
# RAW-Dual [3] = assay: NF-kB SEAP reporter activity, fold change vs agonist alone; cytotoxicity flag (confluency mask): cytotoxic (confluency <70% of control); higher = enhanced NF-kB activity
# Summary of the method: as §1
# [4] = cytotoxicity flag (confluency mask): not cytotoxic, agonist: Imiquimod (TLR7) […]
# [5] = cytotoxicity flag (confluency mask): not cytotoxic, agonist: MPLA (TLR4) […]
# [6] = agonist: ODN 1826 (TLR9) 0.5 ug/mL
# [7] = agonist: Pam2CSK4 (TLR2/6) 0.1 ug/mL
# [8] = agonist: Pam3CSK4 (TLR2/1) 0.1 ug/mL
structure (smiles),measurement,setting,value
NC(=O)NO,NF-kB SEAP reporter activity,RAW-Dual [1]; [4],1.07
same,NF-kB SEAP reporter activity,RAW-Dual [1]; [5],1.03
Cl.Cl.O=C1c2c(O)ccc(O)c2C(=O)c2c(NCCNCCO)ccc(NCCNCCO)c21 (library stock concentration (final ~1000-fold dilution): 10 mM),NF-kB SEAP reporter activity,RAW-Dual [2]; agonist: LPS (TLR4) 0.1 ug/mL,0.336
same,NF-kB SEAP reporter activity,RAW-Dual [2]; [6],0.963
same,NF-kB SEAP reporter activity,RAW-Dual [2]; [7],0.174
same,NF-kB SEAP reporter activity,RAW-Dual [2]; [8],0.678
Cl.Cl.O=C1c2c(O)ccc(O)c2C(=O)c2c(NCCNCCO)ccc(NCCNCCO)c21,NF-kB SEAP reporter activity,RAW-Dual [1]; [4],0.906
same,NF-kB SEAP reporter activity,RAW-Dual [1]; [5],0.925
O=C(Nc1ccccc1C(=O)O)c1cc(S(=O)(=O)c2ccccc2)ccc1Cl,NF-kB SEAP reporter activity,RAW-Dual [1]; [4],0.883
same,NF-kB SEAP reporter activity,RAW-Dual [1]; [5],1.01
O=C(Nc1ccccc1C(=O)O)c1cc(S(=O)(=O)c2ccccc2)ccc1Cl (library stock concentration (final ~1000-fold dilution): 10 mM),NF-kB SEAP reporter activity,RAW-Dual [2]; agonist: LPS (TLR4) 0.1 ug/mL,1.19
same,NF-kB SEAP reporter activity,RAW-Dual [2]; [6],0.999
same,NF-kB SEAP reporter activity,RAW-Dual [2]; [7],1.09
same,NF-kB SEAP reporter activity,RAW-Dual [2]; [8],1.13
CC(C)(C)c1ccc(S(=O)(=O)NCc2ccc(C(=O)Nc3cccnc3)cc2)cc1,NF-kB SEAP reporter activity,RAW-Dual [1]; [4],0.865
same,NF-kB SEAP reporter activity,RAW-Dual [1]; [5],0.908
CC(C)(C)c1ccc(S(=O)(=O)NCc2ccc(C(=O)Nc3cccnc3)cc2)cc1 (library stock concentration (final ~1000-fold dilution): 10 mM),NF-kB SEAP reporter activity,RAW-Dual [2]; agonist: LPS (TLR4) 0.1 ug/mL,0.67
same,NF-kB SEAP reporter activity,RAW-Dual [2]; [6],1.1
same,NF-kB SEAP reporter activity,RAW-Dual [2]; [7],0.834
same,NF-kB SEAP reporter activity,RAW-Dual [2]; [8],0.706
Cc1ccccc1C(=O)N1CCc2cc(-c3nc(NC(=O)Cc4ccc5c(c4)OCO5)sc3C)ccc21 (library stock concentration (final ~1000-fold dilution): 10 mM),NF-kB SEAP reporter activity,RAW-Dual [2]; agonist: LPS (TLR4) 0.1 ug/mL,1.34 and 1.45
same,NF-kB SEAP reporter activity,RAW-Dual [2]; [6],0.971 and 0.758
same,NF-kB SEAP reporter activity,RAW-Dual [2]; [7],0.716 and 0.692
same,NF-kB SEAP reporter activity,RAW-Dual [2]; [8],0.695 and 0.61
COc1c(OC)c2occc2c2oc(=O)ccc12,NF-kB SEAP reporter activity,RAW-Dual [1]; [4],0.982
same,NF-kB SEAP reporter activity,RAW-Dual [1]; [5],1.08
COc1c(OC)c2occc2c2oc(=O)ccc12 (library stock concentration (final ~1000-fold dilution): 10 mM),NF-kB SEAP reporter activity,RAW-Dual [2]; agonist: LPS (TLR4) 0.1 ug/mL,0.937
same,NF-kB SEAP reporter activity,RAW-Dual [2]; [6],0.898
same,NF-kB SEAP reporter activity,RAW-Dual [2]; [7],1.05
same,NF-kB SEAP reporter activity,RAW-Dual [2]; [8],1.1
CCCCC(C=O)NC(=O)C(CC(C)C)NC(=O)C(CC(C)C)NC(C)=O (stereo not drawn),NF-kB SEAP reporter activity,RAW-Dual [1]; [4],1.24
same,NF-kB SEAP reporter activity,RAW-Dual [1]; [5],1.68
CCCCC(C=O)NC(=O)C(CC(C)C)NC(=O)C(CC(C)C)NC(C)=O (stereo not drawn) (library stock concentration (final ~1000-fold dilution): 10 mM),NF-kB SEAP reporter activity,RAW-Dual [2]; agonist: LPS (TLR4) 0.1 ug/mL,0.819
same,NF-kB SEAP reporter activity,RAW-Dual [2]; [6],1.45
same,NF-kB SEAP reporter activity,RAW-Dual [2]; [7],0.395
same,NF-kB SEAP reporter activity,RAW-Dual [2]; [8],1.06
O=C(NOCC(O)CO)c1ccc(F)c(F)c1Nc1ccc(I)cc1F (stereo not drawn) (library stock concentration (final ~1000-fold dilution): 10 mM),NF-kB SEAP reporter activity,RAW-Dual [2]; agonist: LPS (TLR4) 0.1 ug/mL,0.242
same,NF-kB SEAP reporter activity,RAW-Dual [2]; [6],0.221
same,NF-kB SEAP reporter activity,RAW-Dual [2]; [7],0.106
same,NF-kB SEAP reporter activity,RAW-Dual [2]; [8],0.136
O=C(NOCC(O)CO)c1ccc(F)c(F)c1Nc1ccc(I)cc1F (stereo not drawn),NF-kB SEAP reporter activity,RAW-Dual [1]; [4],0.195
same,NF-kB SEAP reporter activity,RAW-Dual [1]; [5],0.203
CCN1/C(=C/C(C)=O)Sc2ccc(OC)cc21,NF-kB SEAP reporter activity,RAW-Dual [1]; [4],1.01
same,NF-kB SEAP reporter activity,RAW-Dual [1]; [5],1.29
CCN1/C(=C/C(C)=O)Sc2ccc(OC)cc21 (library stock concentration (final ~1000-fold dilution): 10 mM),NF-kB SEAP reporter activity,RAW-Dual [2]; agonist: LPS (TLR4) 0.1 ug/mL,0.97
same,NF-kB SEAP reporter activity,RAW-Dual [2]; [6],0.789
same,NF-kB SEAP reporter activity,RAW-Dual [2]; [7],1.06
same,NF-kB SEAP reporter activity,RAW-Dual [2]; [8],1.6
CCCCOc1ccc(CC(=O)NO)cc1 (library stock concentration (final ~1000-fold dilution): 10 mM),NF-kB SEAP reporter activity,RAW-Dual [2]; agonist: LPS (TLR4) 0.1 ug/mL,2.17
same,NF-kB SEAP reporter activity,RAW-Dual [2]; [6],1.51
same,NF-kB SEAP reporter activity,RAW-Dual [2]; [7],1.53
same,NF-kB SEAP reporter activity,RAW-Dual [2]; [8],1.29
CCCCOc1ccc(CC(=O)NO)cc1,NF-kB SEAP reporter activity,RAW-Dual [1]; [4],1.57
same,NF-kB SEAP reporter activity,RAW-Dual [1]; [5],1.4
Oc1c(Cl)cc(Cl)cc1Sc1cc(Cl)cc(Cl)c1O (library stock concentration (final ~1000-fold dilution): 10 mM),NF-kB SEAP reporter activity,RAW-Dual [3]; agonist: LPS (TLR4) 0.1 ug/mL,3.19
same,NF-kB SEAP reporter activity,RAW-Dual [3]; [6],1.08
same,NF-kB SEAP reporter activity,RAW-Dual [3]; [7],0.362
same,NF-kB SEAP reporter activity,RAW-Dual [3]; [8],0.801
Oc1c(Cl)cc(Cl)cc1Sc1cc(Cl)cc(Cl)c1O,NF-kB SEAP reporter activity,"RAW-Dual [1]; cytotoxicity flag (confluency mask): cytotoxic (confluency <70% of control), agonist: Imiquimod (TLR7) […]",1.81
same,NF-kB SEAP reporter activity,"RAW-Dual [1]; cytotoxicity flag (confluency mask): cytotoxic (confluency <70% of control), agonist: MPLA (TLR4) […]",1.6
Cc1cc(C)cc(NC(=O)Cc2ccc(OC(C)(C)C(=O)O)cc2)c1,NF-kB SEAP reporter activity,RAW-Dual [1]; [4],1.08
same,NF-kB SEAP reporter activity,RAW-Dual [1]; [5],1.27
Cc1cc(C)cc(NC(=O)Cc2ccc(OC(C)(C)C(=O)O)cc2)c1 (library stock concentration (final ~1000-fold dilution): 10 mM),NF-kB SEAP reporter activity,RAW-Dual [2]; agonist: LPS (TLR4) 0.1 ug/mL,1.57
same,NF-kB SEAP reporter activity,RAW-Dual [2]; [6],1.22
same,NF-kB SEAP reporter activity,RAW-Dual [2]; [7],1.14
same,NF-kB SEAP reporter activity,RAW-Dual [2]; [8],1.03
CC(C)Cc1ccc(C(C)C(=O)NS(C)(=O)=O)cc1 (stereo not drawn) (library stock concentration (final ~1000-fold dilution): 10 mM),NF-kB SEAP reporter activity,RAW-Dual [2]; agonist: LPS (TLR4) 0.1 ug/mL,1.09
same,NF-kB SEAP reporter activity,RAW-Dual [2]; [6],0.809
same,NF-kB SEAP reporter activity,RAW-Dual [2]; [7],1.01
same,NF-kB SEAP reporter activity,RAW-Dual [2]; [8],1.01
CC(C)Cc1ccc(C(C)C(=O)NS(C)(=O)=O)cc1 (stereo not drawn),NF-kB SEAP reporter activity,RAW-Dual [1]; [4],0.933
same,NF-kB SEAP reporter activity,RAW-Dual [1]; [5],0.957
O=c1c(O)c(-c2ccccc2)oc2cc(O)cc(O)c12 (library stock concentration (final ~1000-fold dilution): 10 mM),NF-kB SEAP reporter activity,RAW-Dual [2]; agonist: LPS (TLR4) 0.1 ug/mL,2.42
same,NF-kB SEAP reporter activity,RAW-Dual [2]; [6],1.62
same,NF-kB SEAP reporter activity,RAW-Dual [2]; [7],1.12
same,NF-kB SEAP reporter activity,RAW-Dual [2]; [8],1.03
O=c1c(O)c(-c2ccccc2)oc2cc(O)cc(O)c12,NF-kB SEAP reporter activity,RAW-Dual [1]; [4],2.05
same,NF-kB SEAP reporter activity,RAW-Dual [1]; [5],1.52
